# From the supplement of paper PMC11417369
# This is one part of the list.
# Tested on: PfHDP1 homeodomain (GST-tagged)
# Assay: gcPBM binding intensity (ln(normalized median fluorescence intensity)); higher = stronger DNA binding
# Outline: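 The binding buffer was 1× PBS containing 1% milk, 0.2 mg/ml BSA, 0.5% salmon testes DNA and 0.03% Triton X-100. In it, GST-tagged P. falciparum DNA-binding domains expressed in E. coli were applied for 1 h to an Agilent 4 × 180k array of primer-extended double-stranded 36-bp intergenic genomic probes plus negative controls. Binding intensity, read with Alexa488 anti-GST antibody and a 488 nm scan, is the highest Masliner-normalised natural-log median intensity across replicate spots of either probe orientation.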
row,Sequence,gcPBM binding intensity (ln)
1,TTCTTTTTAATGTCGGTGCAACTCCATAAAAACAAA [GTGCAC_site9488],10.9
2,CAATTTTCTAATGAAACATGCAAAATAAAATTTTAT [TGCATGCA_site13],6.48
3,AAAAAAAAGGAAAATAAAAATAAAAAAAAATAATAA [XGTACX_negctrl_site601],6.23
4,TGAGAAAAAAAGAATTGTACATATAAAATATAACAA [XGTACX_site3500],5.87
5,AATAAAAAGAAACACACACACACACCCATATATATA [CACACA_site3589],7.1
6,AAAGATACTTTCCTCAAACACACAAAACTATACAAC [CACACA_site1475],6.94
7,TTATCACATTATTGCACACACATAAAGAAAAAAATA [CACACA_site2841],9.63
8,ATATAAGAACAAAATTGTACATAAATATTTATATAA [XGTACX_site7404],6.54
9,TCATACATTTTCCTTGCACACATTTATAATTAATGG [CACACA_site4511],8.55
10,AACAAACACAGACACACACACACACTAATATGATTA [CACACA_site8770],6.8
11,ATATACTATTATGTGTGTACATAATAATTTATTATA [XGTACX_site3776],6.42
12,TAAAACAAAAAAAAGATGCACTATTTATTTTATTAT,7.73
13,TTTAAAAAAAAAAAAAAAAAAAAAAAAAAAAATTTG [CACACA_negctrl_site1235],5.63
14,AAAAAAATATATATATATATATATATATTATATATG [GTGCAC_negctrl_site654],6.87
15,TTTTATTATTTTTGTTGTACAGTATACTGTATGATT [XGTACX_site5359],6.82
16,TAATTATAGGTATACACACACATACATTTACATAAC [CACACA_site7509],7.05
17,TTTTTTTTATGTATCACACATAATTTTTTATTATGA [CACACA_site5534],6.44
18,AGAAAGAAAATATATACACACAAAAAAAAATATATA [CACACA_site1412],6.61
19,CATCCACAAATATGTACACACATATATAAATATGTA [CACACA_site7407],6.73

row,Sequence,gcPBM binding intensity (ln)
1,ATAATAACAAGGCGCTGTACTGTACCGTTTTTCATA [XGTACX_site6135],6.6
2,GATATATCCTATGTTATTTTTATGGTGTAATTTAGT [XGTACX_negctrl_site112],6.74
3,TCACATATATATTAATGTACATATATTTTTTATGTA [XGTACX_site5125],6.22
4,GACAACTCTTTTCATACACACAAAAAAAAAAAAATA [CACACA_site2361],6.44
5,CAATGTTAACATATTACACACATATGTATATATAAT [CACACA_site8878],6.8
6,ATTTTTTCATATTCTACACACGTGAACAAATGAGTC [CACACA_site5635],6.68
7,TACATACATACATACACACACATATATATATATATA [CACACA_site1944],9.5
8,AACAGACAAAGACACACACACATACATACATACATA [CACACA_site6351],7.06
9,TATCATATTTTTATATGTACATAACATAAAAAAAAA [XGTACX_site2152],6
10,TGATTTGTGCCGATTTGTACACATTTATATATATAT [XGTACX_site2154],8.3
11,ATATGCTATTTACTAGTGCAAAATATTTAAAATATG [GTGCAC_site9517],9.99
12,TAAAAAAAAAAAAAAAGTACAAAAAAAATATTTTTT [XGTACX_site7941],6.05
13,TTAATATAAGCAAATACACACACACCGATATATATA [CACACA_site9269],7.19
14,GTTGCACAATGTTACACACACAATATAGATCGTTAA [CACACA_site6717],9.91
15,TTTATATGGATTTTTTTTTAATATTTCTTTTAATTT [TGCATGCA_negctrl_site361],5.96
16,ATAAAAAAAAAAAATACACACATATATTTATTTATA [CACACA_site6903],6.17
17,ATAAACAGAAAAAAAAAAAAAAAAAAAAAAAAAAAA [CACACA_negctrl_site143],6.12
18,TTTTTTTTCTCACAAAAAATAATTAACAAAAAGGAA [XGTACX_negctrl_site154],6.47
19,GGCATGACTATCTGCACACATAAAAATAAGAAATAC [CACACA_site841],8.57

row,Sequence,gcPBM binding intensity (ln)
1,GATTTATACAAATATGTACACACTAATTATATATTA [CACACA_site8045],6.9
2,TTATTGTACTTGCTCGCATGCAATAAAAATATATTA [TGCATGCA_site580],7.19
3,AAATAATATTTTACATGTACATAATAATTATTGGAT [XGTACX_site2783],6.57
4,ATAAAAATAAAAAACTGTACATACAAGATGTTACAG [XGTACX_site6690],6.02
5,ATGCTTCCTTAGGAATGTACACACATATATAATATG [XGTACX_site873],6.67
6,TAAATATTTAAATATTGTACTAGGTATAATTGAATA [XGTACX_site3604],6.48
7,ATAAGAAGAAGAAAAACACACATATGTAGATATATA [CACACA_site7469],6.83
8,ATATATATATATATATGTACTTATTTATATATTTAT [XGTACX_site7811],9.3
9,TGGTTATTTATCTTTATTATAAATATTTACAAATAA [CACACA_negctrl_site1773],6.33
10,GTATATATTAAAAAAAAAAAAAAAAAATTAAAATTA [CACACA_negctrl_site572],5.76
11,TATAAGAAAAATAACACACACATAAACATATATACA [CACACA_site2785],6.95
12,TAGACTGGACATTAATGTACATAAATATATATGTAT [XGTACX_site7726],6.72
13,AAAAAAAAAATTCATTGTACATATATATATATATAT [XGTACX_site8346],9.42
14,GGAATATTAATAAGAGTGCATTTTGTATTCAATATG,7.99
15,TTTATACAATTAGACACACACAAAAAGTATATATAT [CACACA_site1082],6.92
16,CAAATACCCGGACACACACACACAAAAAAAAAAAAA [CACACA_site4441],6.55
17,ATATAATTACATTGATGTACACGAAATGATTAACAT [XGTACX_site5183],6.43
18,ATGGGTATATTTCCACGTACAAAAAATCCGAATTGC [XGTACX_site1490],6.43
